# Laboratory results reported in the supplement of paper PMC8728848.
# The other results are listed elsewhere or left out.
# B1: CSA (Cytisus scoparius), P29257 (protein)
# chain: SEELSFSFTKFKTDQKNLILQRDALITPTGKLQLTTVENGKPAAYSLGRALYSTPIHIWDKSTGDEASFATFFSFVISDAPNPSTAATDGLAFFLAPADTQPQSAGGYLGLFEKDSSYNSSNQIVAVEFDTYYNSAWDPQTNPHIGIDVNTIKSKKVSSWGFKNGNVATVLITYQPSSKSLVASLVYPSGQTSDKTSYIISANVDLKATVPEWVRIGFSATTGQTDNYIETHDILSWSFKSKLPATKN
# How the values were obtained:
# Assay in all cases: glycan array binding signal (z-score within array); higher = stronger binding
# Details in all cases: glycan notation: IUPAC condensed, linker removed
# [1] = molecular target: Neu5Ac(a2-6)Gal(b1-4)GlcNAc(b1-2)[Neu5Ac(a2-6)Gal(b1-4)GlcNAc(b1-6)]Man(a1-6)[Neu5Ac(a2-6)Gal(b1-4)GlcNAc(b1-2)Man(a1-3)][GlcNAc(b1-4)]Man(b1-4)GlcNAc(b1-4)GlcNAc
# In short: (§1)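 Arrays were curated from the Consortium for Functional Glycomics database, 3228 in total, and kept only where the protein sequence was available. Binding is expressed as a within-array Z-score. This score was averaged across arrays of the same protein sequence at different concentrations or buffers and across linkers, and negative values can be read as non-binding.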
# [2] = molecular target: Neu5Ac(a2-6)Gal(b1-4)GlcNAc(b1-3)Gal(b1-3)GlcNAc
# In short: as §1
# [3] = molecular target: Neu5Ac(a2-6)Gal(b1-4)GlcNAc(b1-3)Gal(b1-4)GlcNAc
# In short: as §1
# [4] = molecular target: Neu5Ac(a2-6)Gal(b1-4)GlcNAc(b1-3)Gal(b1-4)GlcNAc(b1-2)Man(a1-3)[Neu5Ac(a2-6)Gal(b1-4)GlcNAc(b1-3)Gal(b1-4)GlcNAc(b1-2)Man(a1-6)]GalNAc
# In short: as §1
# [5] = molecular target: Neu5Ac(a2-6)Gal(b1-4)GlcNAc(b1-3)Gal(b1-4)GlcNAc(b1-3)Gal(b1-4)GlcNAc
# In short: as §1
# [6] = molecular target: Neu5Ac(a2-6)Gal(b1-4)GlcNAc(b1-3)Gal(b1-4)GlcNAc(b1-3)Gal(b1-4)GlcNAc(b1-2)Man(a1-3)[Neu5Ac(a2-6)Gal(b1-4)GlcNAc(b1-3)Gal(b1-4)GlcNAc(b1-3)Gal(b1-4)GlcNAc(b1-2)Man(a1-6)]GalNAc
# In short: as §1
# [7] = molecular target: Neu5Ac(a2-6)Gal(b1-4)GlcNAc(b1-3)Gal(b1-4)GlcNAc(b1-3)GalNAc
# In short: as §1
# [8] = molecular target: Neu5Ac(a2-6)Gal(b1-4)GlcNAc(b1-3)Gal(b1-4)GlcNAc(b1-3)[Neu5Ac(a2-6)Gal(b1-4)GlcNAc(b1-3)Gal(b1-4)GlcNAc(b1-6)]GalNAc
# In short: as §1
# [9] = molecular target: Neu5Ac(a2-6)Gal(b1-4)GlcNAc(b1-3)Gal(b1-4)GlcNAc(b1-6)[Gal(b1-3)]GalNAc
# In short: as §1
# [10] = molecular target: Neu5Ac(a2-6)Gal(b1-4)GlcNAc(b1-3)Gal(b1-4)[Fuc(a1-3)]GlcNAc(b1-3)Gal(b1-4)[Fuc(a1-3)]GlcNAc
# In short: as §1
# [11] = molecular target: Neu5Ac(a2-6)Gal(b1-4)GlcNAc(b1-3)GalNAc
# In short: as §1
# [12] = molecular target: Neu5Ac(a2-6)Gal(b1-4)GlcNAc(b1-3)[Neu5Ac(a2-6)Gal(b1-4)GlcNAc(b1-6)]GalNAc
# In short: as §1
# [13] = molecular target: Neu5Ac(a2-6)Gal(b1-4)GlcNAc(b1-6)GalNAc
# In short: as §1
# [14] = molecular target: Neu5Ac(a2-6)Gal(b1-4)GlcNAc(b1-6)[Gal(b1-3)GlcNAc(b1-3)]Gal(b1-4)Glc
# In short: as §1
# [15] = molecular target: Neu5Ac(a2-6)Gal(b1-4)GlcNAc(b1-6)[Gal(b1-3)]GalNAc
# In short: as §1
# [16] = molecular target: Neu5Ac(a2-6)Gal(b1-4)GlcNAc6S
# In short: as §1
# Neu5Ac(a2-6)GalNAc = molecular target: Neu5Ac(a2-6)GalNAc
# In short: as §1
# [17] = molecular target: Neu5Ac(a2-6)GalNAc(b1-4)GlcNAc
# In short: as §1
# [18] = molecular target: Neu5Ac(a2-6)GalNAc(b1-4)GlcNAc6S
# In short: as §1
# [19] = molecular target: Neu5Ac(a2-6)GlcNAc(b1-4)GlcNAc
# In short: as §1
# [20] = molecular target: Neu5Ac(a2-6)GlcNAc(b1-4)GlcNAc(b1-4)GlcNAc
# In short: as §1
# Neu5Ac(a2-8)Neu5Ac = molecular target: Neu5Ac(a2-8)Neu5Ac
# In short: as §1
# [21] = molecular target: Neu5Ac(a2-8)Neu5Ac(a2-3)Gal(b1-3)GalNAc(b1-4)[Neu5Ac(a2-3)]Gal(b1-4)Glc
# In short: as §1
# [22] = molecular target: Neu5Ac(a2-8)Neu5Ac(a2-3)Gal(b1-3)GalNAc(b1-4)[Neu5Ac(a2-8)Neu5Ac(a2-3)]Gal(b1-4)Glc
# In short: as §1
# [23] = molecular target: Neu5Ac(a2-8)Neu5Ac(a2-3)Gal(b1-4)Glc
# In short: as §1
# [24] = molecular target: Neu5Ac(a2-8)Neu5Ac(a2-3)Gal(b1-4)GlcNAc
# In short: as §1
# [25] = molecular target: Neu5Ac(a2-8)Neu5Ac(a2-3)[Gal(b1-3)GalNAc(b1-4)]Gal(b1-4)Glc
# In short: as §1
# [26] = molecular target: Neu5Ac(a2-8)Neu5Ac(a2-3)[GalNAc(b1-4)]Gal(b1-4)Glc
# In short: as §1
# [27] = molecular target: Neu5Ac(a2-8)Neu5Ac(a2-8)Neu5Ac
# In short: as §1
# [28] = molecular target: Neu5Ac(a2-8)Neu5Ac(a2-8)Neu5Ac(a2-3)Gal(b1-4)Glc
# In short: as §1
# [29] = molecular target: Neu5Ac(a2-8)Neu5Ac(a2-8)Neu5Ac(a2-3)[Gal(b1-3)GalNAc(b1-4)]Gal(b1-4)Glc
# In short: as §1
# [30] = molecular target: Neu5Ac(a2-8)Neu5Ac(a2-8)Neu5Ac(a2-3)[GalNAc(b1-4)]Gal(b1-4)Glc
# In short: as §1
# [31] = molecular target: Neu5Ac(a2-8)Neu5Ac(a2-8)Neu5Ac(a2-8)Neu5Ac(a2-3)[GalNAc(b1-4)]Gal(b1-4)Glc
# In short: as §1
# [32] = molecular target: Neu5Ac(a2-8)Neu5Gc(a2-3)Gal(b1-4)GlcNAc
# In short: as §1
# Neu5Ac(b1-6)GalNAc = molecular target: Neu5Ac(b1-6)GalNAc
# In short: as §1
# [33] = molecular target: Neu5Ac(b2-6)Gal(b1-4)GlcNAc
# In short: as §1
# Neu5Ac(b2-6)GalNAc = molecular target: Neu5Ac(b2-6)GalNAc
# In short: as §1
# [34] = molecular target: Neu5Ac9Ac(a2-3)Gal(b1-3)GlcNAc
# In short: as §1
# [35] = molecular target: Neu5Ac9Ac(a2-3)Gal(b1-4)GlcNAc
# In short: as §1
# [36] = molecular target: Neu5Ac9Ac(a2-6)Gal(b1-4)GlcNAc
# In short: as §1
# [37] = molecular target: Neu5Gc(a2-3)Gal(b1-3)GlcNAc
# In short: as §1
# [38] = molecular target: Neu5Gc(a2-3)Gal(b1-3)[Fuc(a1-4)]GlcNAc
# In short: as §1
# Neu5Gc(a2-3)Gal(b1-4)Glc = molecular target: Neu5Gc(a2-3)Gal(b1-4)Glc
# In short: as §1
# [39] = molecular target: Neu5Gc(a2-3)Gal(b1-4)GlcNAc
# In short: as §1
# [40] = molecular target: Neu5Gc(a2-3)Gal(b1-4)GlcNAc(b1-3)Gal(b1-4)GlcNAc(b1-2)Man(a1-3)[Neu5Gc(a2-3)Gal(b1-4)GlcNAc(b1-3)Gal(b1-4)GlcNAc(b1-2)Man(a1-6)]Man(b1-4)GlcNAc(b1-4)GlcNAc
# In short: as §1
# [41] = molecular target: Neu5Gc(a2-3)Gal(b1-4)[Fuc(a1-3)]GlcNAc
# In short: as §1
# [42] = molecular target: Neu5Gc(a2-6)Gal(b1-4)GlcNAc
# In short: as §1
# Neu5Gc(a2-6)GalNAc = molecular target: Neu5Gc(a2-6)GalNAc
# In short: as §1
# [43] = molecular target: Neu5Gc(a2-8)Neu5Ac(a2-3)Gal(b1-4)GlcNAc
# In short: as §1
# [44] = molecular target: Neu5Gc(a2-8)Neu5Gc(a2-3)Gal(b1-4)GlcNAc
# In short: as §1
# [45] = molecular target: Neu5Gc(a2-8)Neu5Gc(a2-3)Gal(b1-4)GlcNAc(b1-3)Gal(b1-4)GlcNAc
# In short: as §1
# [46] = molecular target: Neu5Gc(a2-8)Neu5Gc(a2-6)Gal(b1-4)GlcNAc
# In short: as §1
# [47] = molecular target: Neu5Gc(b2-6)Gal(b1-4)GlcNAc
# In short: as §1
binder,measurement,setting,value
B1,glycan array binding signal (z-score),[1],-0.195
same,glycan array binding signal (z-score),[2],-0.218
same,glycan array binding signal (z-score),[3],-0.189
same,glycan array binding signal (z-score),[4],-0.096
same,glycan array binding signal (z-score),[5],-0.181
same,glycan array binding signal (z-score),[6],0.296
same,glycan array binding signal (z-score),[7],-0.243
same,glycan array binding signal (z-score),[8],0.391
same,glycan array binding signal (z-score),[9],-0.036
same,glycan array binding signal (z-score),[10],-0.181
same,glycan array binding signal (z-score),[11],-0.174
same,glycan array binding signal (z-score),[12],-0.172
same,glycan array binding signal (z-score),[13],-0.202
same,glycan array binding signal (z-score),[14],-0.252
same,glycan array binding signal (z-score),[15],-0.04
same,glycan array binding signal (z-score),[16],-0.152
same,glycan array binding signal (z-score),Neu5Ac(a2-6)GalNAc,-0.203
same,glycan array binding signal (z-score),[17],-0.204
same,glycan array binding signal (z-score),[18],-0.196
same,glycan array binding signal (z-score),[19],-0.207
same,glycan array binding signal (z-score),[20],-0.199
same,glycan array binding signal (z-score),Neu5Ac(a2-8)Neu5Ac,-0.205
same,glycan array binding signal (z-score),[21],-0.254
same,glycan array binding signal (z-score),[22],-0.185
same,glycan array binding signal (z-score),[23],-0.234
same,glycan array binding signal (z-score),[24],-0.119
same,glycan array binding signal (z-score),[25],-0.169
same,glycan array binding signal (z-score),[26],0.646
same,glycan array binding signal (z-score),[27],-0.187
same,glycan array binding signal (z-score),[28],-0.196
same,glycan array binding signal (z-score),[29],-0.192
same,glycan array binding signal (z-score),[30],-0.061
same,glycan array binding signal (z-score),[31],-0.149
same,glycan array binding signal (z-score),[32],-0.203
same,glycan array binding signal (z-score),Neu5Ac(b1-6)GalNAc,-0.197
same,glycan array binding signal (z-score),[33],-0.155
same,glycan array binding signal (z-score),Neu5Ac(b2-6)GalNAc,-0.163
same,glycan array binding signal (z-score),[34],-0.2
same,glycan array binding signal (z-score),[35],-0.06
same,glycan array binding signal (z-score),[36],-0.199
same,glycan array binding signal (z-score),[37],-0.127
same,glycan array binding signal (z-score),[38],-0.202
same,glycan array binding signal (z-score),Neu5Gc(a2-3)Gal(b1-4)Glc,-0.173
same,glycan array binding signal (z-score),[39],-0.206
same,glycan array binding signal (z-score),[40],-0.204
same,glycan array binding signal (z-score),[41],-0.233
same,glycan array binding signal (z-score),[42],-0.197
same,glycan array binding signal (z-score),Neu5Gc(a2-6)GalNAc,-0.175
same,glycan array binding signal (z-score),[43],-0.25
same,glycan array binding signal (z-score),[44],-0.227
same,glycan array binding signal (z-score),[45],-0.262
same,glycan array binding signal (z-score),[46],-0.148
same,glycan array binding signal (z-score),[47],-0.18
